This list was built around the results that the source calls inconclusive (neither active nor inactive); the mix of calls is not that of the screen. For some assays here: Potencies of inconclusive entries are doubtful fits and often do not repeat. The source made the active and inactive calls. Unless noted, calls come from the whole dose curve; as a rule, active = well fitted curve in the direction sought with a large enough effect in the repeat runs; inconclusive = weak or mixed curves; inactive = no such curve, though single readings can be large; an effect the other way counts as inactive or inconclusive.
Tests used:
[1] = A CellTox Green Cytotoxicity Assay to monitor cytotoxicity in HepG2 cells - 32 hour (AID 1224883); note: nearly all actives have a fitted effect of over 50% in size; note: potency is the fitted concentration of half-maximal effect
Method in brief: (§1)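 Read-out is fluorescence of a cyanine dye excluded from live cells that stains DNA of dead HepG2 cells, with signal proportional to cytotoxicity. Plates were read at 0, 8, 16, 24, 32 and 40 h after compound addition.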

[2] = A CellTox Green Cytotoxicity Assay to monitor cytotoxicity in HepG2 cells - 8 hour (AID 1224890); note: potency is the fitted concentration of half-maximal effect; nearly all actives have a fitted effect of over 45% in size
Method in brief: as §1

[3] = target: Estrogen receptor beta (Homo sapiens) (UniProt Q92731); assay: qHTS assay to identify small molecule agonists of the estrogen receptor beta (ER-beta) signaling pathway (AID 1259377; active = well fitted activation curve with a large enough effect in the signal ratio in the repeat runs, not every such curve was filed as active; inconclusive = weak or mixed curves, or effect the other way; the % refers to the signal ratio; note: potency is the fitted concentration of half-maximal effect; for activation: % is set by controls: 0 for no effect and ±100 for the full control effect); conditions: ER-beta-UAS-bla HEK293T, beta-lactamase FRET ratio, 16 h; activation: at 92.4 µM (top of the series) unless noted
Method in brief: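 Screening used GripTite ER-beta-UAS-bla cells held in 2% charcoal-stripped FBS medium. After overnight (16 hr) compound incubation at 37C, beta-lactamase activity was detected with a FRET substrate by fluorescence.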

[4] = qHTS assay to identify small molecule antagonists of the estrogen receptor alpha (ER-alpha) signaling pathway using the BG1 cell line in the presence of 0.1 nM 17-beta-estradiol - cell viability counter screen (AID 1259241); note: % is set by controls: 0 for no effect and ±100 for the full control effect; nearly all actives have a fitted effect of over 40% in size
Method in brief: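 CellTiter-Fluor read (30 min, 37C) on ER-alpha/ERE-luc VM7Luc4E2 cells; 22 hr compound treatment; agonist 0.1 nM E2 final; same-well multiplex.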

[5] = qHTS assay to identify small molecule antagonists of the sonic hedgehog signaling (Shh) pathway - cell viability counter screen (AID 1259367); note: nearly all actives have a fitted effect of over 55% in size; note: potency is the fitted concentration of half-maximal effect
Method in brief: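 Using CellTiter-Fluor, viability of Gli1-Luc reporter 3T3 cells is read by fluorescence in the wells used for the Shh luciferase assay. Treatment lasts 23 hr with conditioned medium, then reagent 1 hr at 37C.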

[6] = qHTS assay to identify small molecule antagonists of the androgen receptor (AR) signaling pathway using the MDA cell line in the presence of 0.5 nM R1881 - cell viability counter screen (AID 1259242); note: nearly all actives have a fitted effect of over 45% in size; note: potency is the fitted concentration of half-maximal effect
Method in brief: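 Counter screen for cytotoxicity run in the same wells as the AR antagonist reporter screen: MDA-kb2 cells were treated 16 hr with test compounds and 0.5 nM R1881, then live-cell protease activity was measured by fluorescence.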

[7] = qHTS assay to identify small molecule phospholipidosis (PLD) inducers (AID 1259344; active = well fitted curve in the direction sought with a large enough effect; inconclusive = small, poorly fitted or top-dose-only effect, or another doubt; inactive = no such curve, though single readings can be large; an effect the other way counts as inactive or inconclusive; note: potency is the fitted concentration of half-maximal effect)
Method in brief: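 Fluorescent phospholipid staining (LipidTOX Red) measured by automated microscopy in fixed HepG2 cells after 24 h treatment; nuclei counterstained with Hoechst 33342; amiodarone as reference inducer.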

[8] = qHTS assay to identify small molecule antagonists of the sonic hedgehog signaling (Shh) pathway (AID 1259369; calls by dose curve; note: nearly all actives have a fitted effect of over 45% in size; note: potency is the fitted concentration of half-maximal effect)
Method in brief: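 3T3Gli1-Luc, conditioned-medium-stimulated, 24hr cpd, 37C/5% CO2; Gli1-driven firefly Luc luminescence after 30min RT with luciferase reagent. Cells plated 4hr before cpd.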

[9] = qHTS assay to identify small molecule agonists of the sonic hedgehog signaling (Shh) pathway - cell viability counter screen (AID 1259366); note: nearly all actives have a fitted effect of over 50% in size; note: potency is the fitted concentration of half-maximal effect
Method in brief: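 Fluorescence from CellTiter-Fluor reports live cells in this counter screen. NIH/3T3-derived Gli1-Luc reporter cells receive test compounds for 24hr at 37C; reagent goes in at 23hr.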

[10] = target: Androgen receptor (Homo sapiens) (UniProt P10275); assay: qHTS assay to identify small molecule antagonists of the androgen receptor (AR) signaling pathway using the MDA cell line in the presence of 0.5 nM R1881 (AID 1259243); note: potency is the fitted concentration of half-maximal effect; nearly all actives have a fitted effect of over 50% in size
Method in brief: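 Luciferase luminescence is the read-out: compounds are tested for suppressing 0.5 nM R1881-driven MMTV reporter activity in MDA-kb2 cells after 16 hr at 37C.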

[11] = target: Estrogen receptor (Homo sapiens) (UniProt P03372); assay: qHTS assay to identify small molecule antagonists of the estrogen receptor alpha (ER-alpha) signaling pathway using the BG1 cell line in the presence of 0.1 nM 17-beta-estradiol (AID 1259244); note: potency is the fitted concentration of half-maximal effect; nearly all actives have a fitted effect of over 50% in size
Method in brief: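 Cells: VM7Luc4E2, endogenous ER-alpha, 4x ERE-luc stable. Pre-culture 5 d, phenol red-free, charcoal-stripped FBS. Plated 24 h, compound + E2 0.1 nM final, 22 h 37C/5% CO2. Readout ONE-Glo luminescence.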

[12] = qHTS assay to identify small molecule HDAC inhibitors - cell viability counter screen (AID 1259365)
Method in brief: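 To flag cytotoxic hits, 1,500 wild-type HCT-116 cells per well, plated the day before, receive test compounds for 2hr at 37 C before CellTiter-Glo reagent and a luminescence read.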

[13] = qHTS assay to identify small molecule agonists of the sonic hedgehog signaling (Shh) pathway (AID 1259368; calls by dose curve; note: potency is the fitted concentration of half-maximal effect; nearly all actives have a fitted effect of over 15% in size)
Method in brief: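 3T3Gli1-Luc (NIH/3T3 clone, stable Gli1-Luc); 4 hr pre-incubation, then cpd in DMSO 24 hr, 37 C/5% CO2; luciferase reagent 30 min RT; luminescence.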
Tags give direction and shape of the fitted curve or compound fluorescence and quenching.

Chain of UniProt Q92731 (Q92731 whole entry, looked up): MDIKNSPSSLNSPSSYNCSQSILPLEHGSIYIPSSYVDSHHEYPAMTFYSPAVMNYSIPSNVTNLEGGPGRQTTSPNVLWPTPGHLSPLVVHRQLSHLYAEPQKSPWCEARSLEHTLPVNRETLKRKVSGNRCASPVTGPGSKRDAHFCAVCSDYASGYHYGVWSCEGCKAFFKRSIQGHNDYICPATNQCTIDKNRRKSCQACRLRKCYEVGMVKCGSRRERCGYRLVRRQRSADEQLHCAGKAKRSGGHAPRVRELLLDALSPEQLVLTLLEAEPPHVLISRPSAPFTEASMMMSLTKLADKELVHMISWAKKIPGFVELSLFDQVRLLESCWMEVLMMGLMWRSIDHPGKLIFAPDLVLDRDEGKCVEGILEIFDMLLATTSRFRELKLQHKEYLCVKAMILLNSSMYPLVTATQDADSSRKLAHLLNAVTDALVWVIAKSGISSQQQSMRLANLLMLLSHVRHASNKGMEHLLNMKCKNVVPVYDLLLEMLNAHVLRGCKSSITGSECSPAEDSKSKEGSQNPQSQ
Chain of UniProt P03372 (P03372 whole entry, looked up): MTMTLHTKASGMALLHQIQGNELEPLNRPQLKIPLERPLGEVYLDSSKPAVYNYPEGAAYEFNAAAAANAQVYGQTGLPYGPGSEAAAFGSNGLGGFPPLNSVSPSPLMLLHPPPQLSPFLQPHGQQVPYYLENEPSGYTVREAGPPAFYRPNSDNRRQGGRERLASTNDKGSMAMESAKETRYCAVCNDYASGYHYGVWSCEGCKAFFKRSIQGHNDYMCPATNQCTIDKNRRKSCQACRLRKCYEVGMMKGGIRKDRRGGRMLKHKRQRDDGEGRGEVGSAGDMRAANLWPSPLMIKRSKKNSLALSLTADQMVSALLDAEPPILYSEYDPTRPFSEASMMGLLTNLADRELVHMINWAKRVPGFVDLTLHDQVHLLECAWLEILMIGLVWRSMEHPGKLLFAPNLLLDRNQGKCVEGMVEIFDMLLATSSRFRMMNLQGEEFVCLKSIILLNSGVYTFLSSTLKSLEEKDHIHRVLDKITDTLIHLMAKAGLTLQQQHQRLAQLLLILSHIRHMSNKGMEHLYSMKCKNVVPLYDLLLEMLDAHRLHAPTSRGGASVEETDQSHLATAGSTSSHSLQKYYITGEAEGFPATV
Chain of UniProt P10275 (P10275 whole entry, looked up): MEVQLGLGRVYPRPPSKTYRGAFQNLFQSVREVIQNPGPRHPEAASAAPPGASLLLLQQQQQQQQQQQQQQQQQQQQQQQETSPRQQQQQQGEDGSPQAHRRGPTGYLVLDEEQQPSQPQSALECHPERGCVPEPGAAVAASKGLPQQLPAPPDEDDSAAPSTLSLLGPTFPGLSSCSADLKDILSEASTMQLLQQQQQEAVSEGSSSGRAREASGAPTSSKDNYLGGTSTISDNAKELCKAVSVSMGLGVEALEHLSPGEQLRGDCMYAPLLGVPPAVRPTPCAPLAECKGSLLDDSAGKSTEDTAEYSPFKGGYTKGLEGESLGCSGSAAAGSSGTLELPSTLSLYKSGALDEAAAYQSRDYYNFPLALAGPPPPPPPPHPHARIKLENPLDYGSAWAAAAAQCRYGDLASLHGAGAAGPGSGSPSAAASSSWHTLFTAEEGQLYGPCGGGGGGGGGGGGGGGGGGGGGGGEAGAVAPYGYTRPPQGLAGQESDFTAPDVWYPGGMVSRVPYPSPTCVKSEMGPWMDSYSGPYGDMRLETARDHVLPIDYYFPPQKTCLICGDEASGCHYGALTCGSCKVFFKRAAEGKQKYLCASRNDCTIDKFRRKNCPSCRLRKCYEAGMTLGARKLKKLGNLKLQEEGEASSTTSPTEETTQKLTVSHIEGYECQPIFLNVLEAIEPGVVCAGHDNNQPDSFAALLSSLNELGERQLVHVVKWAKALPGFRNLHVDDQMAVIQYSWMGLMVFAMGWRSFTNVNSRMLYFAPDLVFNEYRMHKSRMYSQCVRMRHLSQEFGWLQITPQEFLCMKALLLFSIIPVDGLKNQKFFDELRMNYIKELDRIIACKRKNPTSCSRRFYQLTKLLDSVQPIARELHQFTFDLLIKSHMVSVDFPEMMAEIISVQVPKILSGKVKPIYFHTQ

Structure (SMILES): CNC(=O)C(c1ccccc1)c1ccccc1
- Potency [1]: inconclusive: 61.6 µM [activator, single point]
- Potency [2]: inconclusive: 61.6 µM [activator, partial curve, poor fit]
- Potency [3]: inactive

Structure (SMILES): CCCO
- Potency [1]: inconclusive: 21.9 µM [activator, single point]
- Potency [4]: inactive
- Potency [5]: inactive

Structure (SMILES): CC[N+](CC)(CC)CCOc1ccc(/C=C/c2ccccc2)cc1
- Potency [1]: inconclusive: 26.8 µM [activator, partial curve, poor fit]
- Potency [6]: inconclusive: 11.9 µM [cytotoxic, full curve]
- Potency [7]: inconclusive: 20 µM [activator, single point]
- Potency [8]: inconclusive: 1.88 µM [inhibitor, full curve]

Structure (SMILES): O=Cc1ccc(O)c(O)c1O
- Potency [1]: inconclusive: 16.9 µM [activator, partial curve]
- Potency [9]: inconclusive: 33.5 µM [cytotoxic, single point]
- Potency [5]: inconclusive: 33.5 µM [cytotoxic, single point]
- Potency [8]: active: 26.6 µM
- Potency [3]: inconclusive: 13.3 µM [rising, partial curve]

Structure (SMILES): CCc1oc2ccccc2c1C(=O)c1cc(Br)c(O)c(Br)c1
- Potency [1]: inactive
- Potency [10]: inconclusive: 33.5 µM [inhibitor, single point]
- Potency [11]: inconclusive: 33.5 µM [inhibitor, partial curve, poor fit]
- Potency [3]: inconclusive: 10.6 µM [rising, single point]

Structure (SMILES): NC(=O)N(O)[C@@H]1COc2cc(OCc3ccccc3)ccc21
- Potency [1]: inconclusive: 54.9 µM [activator, single point]
- Potency [12]: inactive
- Potency [5]: inconclusive: 54.5 µM [cytotoxic, partial curve]

Structure (SMILES): COc1c(C)c2c(c(O)c1C/C=C(\C)CCC(=O)OCCN1CCOCC1)C(=O)OC2
- Potency [1]: inactive
- Potency [3]: inactive

Structure (SMILES): O=C1CCCCCCCCCCCCCCCO1
- Potency [1]: active: 43.6 µM
- Potency [3]: inactive

Structure (SMILES): N#Cc1cc2ccccc2c2ccccc12
- Potency [1]: inactive
- activation [3]: inconclusive: 6.99%

Structure (SMILES): O=C(c1ccccc1)C1CCC1
- Potency [1]: active: 38.9 µM
- Potency [2]: active: 38.9 µM
- Potency [3]: inactive

Structure (SMILES): O=[N+]([O-])c1cccc(Cl)c1
- Potency [1]: inconclusive: 21.9 µM [activator, single point]
- Potency [8]: inconclusive: 2.39 µM [inhibitor, single point]
- Potency [3]: inconclusive: 67.4 µM [activator]

Structure (SMILES): O=C1CCCCC1
- Potency [1]: inconclusive: 24.5 µM [activator, single point]
- Potency [9]: inactive

Structure (SMILES): Cc1c(N)cccc1C(F)(F)F
- Potency [1]: inactive
- Potency [9]: inactive

Structure (SMILES): O=C1CCc2ccccc2O1
- Potency [1]: inconclusive: 21.9 µM [activator, single point]
- Potency [11]: inconclusive: 68.6 µM [inhibitor, single point]
- Potency [8]: inconclusive: 68.9 µM [inhibitor, single point]
- Potency [3]: inconclusive: 34.6 µM [rising, partial curve, poor fit]

Structure (SMILES): Cn1c(=O)c2c(ncn2CCO)n(C)c1=O
- Potency [1]: inconclusive: 26.8 µM [activator, single point]
- Potency [2]: inconclusive: 26.8 µM [activator, single point]
- Potency [8]: inactive

Structure (SMILES): CCCCCCCCCC[N+](C)(C)[O-]
- Potency [1]: inconclusive: 61.6 µM [activator, single point]
- Potency [9]: inactive

Structure (SMILES): CCc1ccc2c(c1)C(=O)c1ccccc1C2=O
- Potency [1]: inactive
- Potency [6]: inactive
- Potency [13]: active: 6.86 µM
- Potency [8]: inactive

Structure (SMILES): Cc1ccccc1C(=O)O
- Potency [1]: inconclusive: 60.6 µM [activator, single point]
- Potency [5]: inconclusive: 9.51 µM [cytotoxic, partial curve, poor fit]
- Potency [8]: inactive

Structure (SMILES): CCCC(=O)CC
- Potency [1]: inactive
- Potency [8]: inconclusive: 2.51 µM [inhibitor, single point]

Structure (SMILES): COc1ccc2cccc(CCNC(C)=O)c2c1
- Potency [1]: inconclusive: 10.7 µM [activator, single point]
- Potency [2]: inconclusive: 13.4 µM [activator, single point]
- Potency [3]: inconclusive: 13.3 µM [rising, partial curve, poor fit]

Structure (SMILES): C[C@@H]1[C@H](O)[C@@H](C)/C=C/C=C\C=C\C=C\C=C\C=C\C=C\[C@H](O[C@@H]2O[C@H](C)[C@@H](O)[C@H](N)[C@@H]2O)C[C@@H]2O[C@](O)(C[C@@H](O)C[C@@H](O)[C@H](O)CC[C@@H](O)C[C@@H](O)CC(=O)O[C@H]1C)C[C@H](O)[C@H]2C(=O)O (stereo in doubt)
- Potency [1]: inconclusive: 61.7 µM [activator, partial curve, poor fit]
- Potency [6]: inconclusive: 48.6 µM [cytotoxic, partial curve, poor fit]
- Potency [9]: inconclusive: 61.1 µM [cytotoxic]
- Potency [5]: inconclusive: 61.1 µM [cytotoxic, partial curve]
- Potency [8]: inconclusive: 48.6 µM [inhibitor, partial curve, poor fit]
- Potency [3]: inconclusive: 61.1 µM
